Results as given in publication PMC10338342 (2023).

Target: nucleosome core particle: human histone octamer (H2A, H2B, H3.1, H4) wrapped by DNA (human, UniProt P04908; P06899; P68431; P62805)
Test: FRET; NCP SHL+5.8; competition with His-MYC-MAX (625 nM)

- IC50: 5.19 µM
B1: MYC-MAX bHLH LZ heterodimer (complex)
chain 1: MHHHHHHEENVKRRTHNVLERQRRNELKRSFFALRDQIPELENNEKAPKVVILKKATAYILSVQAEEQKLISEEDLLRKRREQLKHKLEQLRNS
chain 2: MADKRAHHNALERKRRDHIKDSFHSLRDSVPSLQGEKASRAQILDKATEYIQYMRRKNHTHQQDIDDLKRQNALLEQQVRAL
